{"source": "PubChem BioAssay AID463173", "about": "(ICCB-Longwood Screening Facility, Harvard Medical School, 2010)", "note": "About 1,700 (3.3%) of roughly 52,000 compounds were called active. Cut-off read from the data, not from the text of the source: active = survival mostly below about 52% (no sharp cut-off); inactive = mostly above about 56%. The list shows a part of the results.", "data": [{"tested_on": "Wild type", "test": "growth inhibition of S. aureus wild type versus tarO mutant, primary screen, teichoic acid synthesis inhibitors, RN4220, OD600 (AID 463173)", "details": "S. aureus RN4220 wild type/DeltatarO growth, OD600, 18 h, stronger effect = lower value, screened at 18.75 µg/mL (by protocol)", "values": [{"smiles": "O=C(CCCn1c(=O)c2sccc2n(Cc2cccc(Cl)c2)c1=O)NCc1ccc2c(c1)OCO2", "survival": "inactive: 82%"}, {"smiles": "CCOC(=O)CN1C(=O)c2cccnc2Oc2ccccc21", "survival": "inactive: 69%"}, {"smiles": "O=c1cc(-c2ccccc2)n2c(SCc3cccc([N+](=O)[O-])c3)nnc2[nH]1", "survival": "inactive: 97%"}, {"smiles": "COc1ccc(NC(=O)CSc2nc(-c3ccco3)nc3cc(=O)[nH]n23)cc1", "survival": "inactive: 71%"}, {"smiles": "NC(=O)C1CCN(C(=O)Cn2c(-c3cccs3)cc3ccccc32)CC1", "survival": "inactive: 102%"}, {"smiles": "CCOc1ccc(NC(=O)CN2CCN(CC(=O)Nc3ccccc3OCC)CC2)cc1", "survival": "inactive: 81%"}, {"smiles": "Cc1cc(C(=O)Nc2c(C)nn(Cc3ccc(F)cc3)c2C)no1", "survival": "inactive: 135%"}, {"smiles": "CCOc1cc(C(=O)N2CCC(c3ccncc3)CC2)cc(OCC)c1OCC", "survival": "active: -1%"}, {"smiles": "COc1ccc(Cl)cc1NC(=O)CSc1nc(-c2ccco2)cc(C(F)(F)F)n1", "survival": "inactive: 33%"}, {"smiles": "Cc1ccc(NC2OC(=O)c3ccccc32)cc1", "note": "(stereo not drawn)", "survival": "inactive: 76%"}, {"smiles": "CCc1ccccc1Nc1nc2ccccc2n2cnnc12", "survival": "inactive: 147%"}, {"smiles": "COc1ccc(CCNC(=O)CCn2c(=O)c3cccn3c3cccnc32)cc1OC", "survival": "inactive: 93%"}, {"smiles": "CCCCN(c1ccccc1)S(=O)(=O)c1ccc2c(c1)CC(C)N2C(=O)C1CC1", "note": "(stereo not drawn)", "survival": "inactive: 75%"}, {"smiles": "COc1ccccc1-n1nc(-c2ccccc2)c2cnc3cc(C(F)(F)F)ccc3c21", "survival": "inactive: 83%"}, {"smiles": "CCOC(=O)c1ccc(NC(=O)COC(=O)c2cn(CC)c3nc(C)ccc3c2=O)cc1", "survival": "inactive: 80%"}, {"smiles": "COc1ccc(-c2oc3ncn4nc(-c5ccccc5C)nc4c3c2-c2ccc(OC)cc2)cc1", "survival": "inactive: 118%"}, {"smiles": "Cc1cccc(C)c1OC(=O)CSc1nnc(-c2cccs2)o1", "survival": "inactive: 83%"}, {"smiles": "O=C(CSc1nc(C2CC2)nc2ccccc12)N1CCCCC1", "survival": "inactive: 107%"}, {"smiles": "N#CCNS(=O)(=O)c1ccccc1", "survival": "inactive: 110%"}, {"smiles": "COc1ccc(CNC(=O)CCc2nnc3n(CC(C)C)c(=O)c4ccccc4n23)cc1", "survival": "inactive: 84%"}, {"smiles": "O=S(=O)(Nc1ccc(-c2ccc(N3CCCC3)nn2)cc1)c1cccc(C(F)(F)F)c1", "survival": "inactive: 123%"}, {"smiles": "Cc1ccc(C)c(CN2C(=O)c3ccccc3S(=O)(=O)c3ccc(C(=O)N4CCN(c5ccccc5F)CC4)cc32)c1", "survival": "inactive: 75%"}, {"smiles": "CC1CCCCN1S(=O)(=O)c1ccc(NC(=O)CSc2nc3ccccc3o2)cc1", "note": "(stereo not drawn)", "survival": "inactive: 123%"}, {"smiles": "CCn1ccc2cc(S(=O)(=O)N3CCCN(C(=O)NCCOC)CC3)ccc21", "survival": "inactive: 88%"}, {"smiles": "COc1ccc(C)cc1NS(=O)(=O)c1ccc2[nH]c(=O)c(=O)[nH]c2c1", "survival": "inactive: 95%"}, {"smiles": "CCCCNc1c2c3c(cccc3[nH]c1=O)C(=O)c1ccccc1-2", "survival": "inactive: 115%"}, {"smiles": "CCS(=O)(=O)N1CCc2cc(C(=O)Nc3cc(C(F)(F)F)ccc3Cl)ccc21", "survival": "inactive: 89%"}, {"smiles": "COc1cccc(NC(=O)Cn2c(=O)n(CCCCC(=O)NCCc3ccccc3)c(=O)c3ccccc32)c1", "survival": "inactive: 97%"}, {"smiles": "CC1CCN(C(=O)C2CCN(Cc3cccc(O)c3)CC2)CC1", "survival": "inactive: 111%"}, {"smiles": "CCOC(=O)C1=C(CN2CCN(c3cc(C)ccc3C)CC2)NC(=O)NC1c1ccc(Cl)cc1", "note": "(stereo not drawn)", "survival": "inactive: 93%"}, {"smiles": "Cc1cccc(NC(=O)c2ccc(-c3nc(CSc4ccccc4)c(C)o3)cc2)c1C", "survival": "inactive: 67%"}, {"smiles": "Cc1nc2sc(C(N)=O)c(N)c2c(-c2ccc(Br)cc2)c1C(=O)Nc1ccc(Cl)cc1", "survival": "active: -7%"}, {"smiles": "O=C(CSc1nnc2ccc3ccccc3n12)c1ccc(F)cc1", "survival": "inactive: 63%"}, {"smiles": "COc1ccccc1CNC(=O)c1cnc2sc(N3CCCCCC3)nn2c1=O", "survival": "inactive: 70%"}, {"smiles": "O=c1c2ccccc2n(Cc2ccccc2F)c(=O)n1-c1cccc(F)c1", "survival": "inactive: 75%"}, {"smiles": "Cc1ccc(C(=O)Nc2onc3c2CCCC3)cc1", "survival": "inactive: 80%"}, {"smiles": "Cc1ccccc1C(=O)Nc1ccc2c(c1)CCCN2C(=O)c1cccs1", "survival": "inactive: 77%"}, {"smiles": "CSc1ccc(CNC(=O)CCn2c(=O)c3cccn3c3ccc(F)cc32)cc1", "survival": "inactive: 75%"}, {"smiles": "COC(=O)c1cc2occc2n1Cc1cccc(C)c1", "survival": "active: -1%"}, {"smiles": "COc1ccc(C(=O)N2CCC(c3nc(-c4ccc(S(=O)(=O)N5CCCC5)cc4)no3)CC2)cc1", "survival": "inactive: 97%"}, {"smiles": "CCCCn1c(SCC(=O)N(C(C)C)C(C)C)nc2c1c(=O)n(C)c(=O)n2C", "survival": "inactive: 101%"}, {"smiles": "COc1ccc(C(=O)Nc2ccc(-c3nc4ccccc4s3)cc2C)cc1Cl", "survival": "inactive: 71%"}, {"smiles": "COCCNC(=O)CCN1C(=O)c2cccnc2Oc2ccc(C)cc21", "survival": "inactive: 70%"}, {"smiles": "O=C(NCCCO)Nc1c[nH]c2ccccc2c1=O", "survival": "inactive: 114%"}, {"smiles": "COc1ccc(-n2c(=O)c3ccccc3n(Cc3ccccc3C)c2=O)c(OC)c1", "survival": "inactive: 71%"}, {"smiles": "CC(=O)Nc1nonc1-c1nnc(SCC(=O)Nc2ccc(C)c(Cl)c2)n1-c1ccccc1", "survival": "inactive: 59%"}, {"smiles": "Cc1ccc(-n2nc(C(=O)Nc3ccc(C)c(F)c3)c3c4ccccc4n(C)c3c2=O)cc1", "survival": "inactive: 90%"}, {"smiles": "NC(=O)Cn1c(=O)n(CCCCCC(=O)NCc2ccccc2)c(=O)c2sccc21", "survival": "inactive: 79%"}, {"smiles": "CCOc1ccc(C(=O)c2cnc3ccc(Cl)cc3c2S(=O)(=O)c2ccc(C)cc2)cc1", "survival": "inactive: 86%"}, {"smiles": "CCN(CC)c1ccc(/C=C(/C#N)C(=O)NC(C)C)o1", "survival": "inactive: 110%"}, {"smiles": "CCc1ccccc1Nc1nc2cc(Cl)c(Cl)cc2nc1-n1nc(C)cc1C", "survival": "inactive: 83%"}, {"smiles": "Cc1ccc(-n2ncc3c(=O)n(CC(N)=O)cnc32)cc1", "survival": "inactive: 95%"}, {"smiles": "Cc1ccc(-n2nc(CO)c(C(=O)NCCCc3ccccc3)n2)cc1", "survival": "inactive: 98%"}, {"smiles": "CC(=O)Nc1ccc(NS(=O)(=O)c2c(C)nc3sccn3c2=O)cc1", "survival": "inactive: 84%"}, {"smiles": "COc1cccc(Cn2c(NCc3ccc(C)cc3)nc3c2c(=O)n(C)c(=O)n3C)c1", "survival": "inactive: 81%"}, {"smiles": "CCOc1ccc(CNC(=O)C2CCCN(S(=O)(=O)N(C)c3ccc(F)cc3)C2)cc1OC", "note": "(stereo not drawn)", "survival": "inactive: 124%"}, {"smiles": "Cc1nn(-c2ccc3nnc(C)n3n2)c(C)c1CCC(=O)Nc1ccc(OC(F)(F)F)cc1", "survival": "inactive: 71%"}, {"smiles": "COc1ccc(-c2cn3nc(N4CCCC(C(=O)NCc5ccccc5OC)C4)sc3n2)cc1", "note": "(stereo not drawn)", "survival": "inactive: 68%"}]}]}
